Here are results for 39 molecules from PubChem BioAssay AID1745853 (National Center for Advancing Translational Sciences (NCATS), 2022).

Structures are written as SMILES. The list shows a part of the results. These are further read-outs of the screen, such as a control signal, another cell line or another target. No call is given for them.

Common to all, as to assay: Primary Screen for Target Class Profiling of Small Molecule Inhibitors of Methyltransferases
The target of experiment [1] is Glycine N-methyltransferase (Homo sapiens) (UniProt Q14749). To be noted: purified enzyme, MTase-Glo SAH luminescence; measured here: GNMT inhibition; at 40 µM; stronger effect = lower value. The essentials: (§1)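 Each enzyme was reacted with SAM and its substrate, with compounds tested once at 40 uM; SAH formed was read by MTase-Glo luminescence.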
The target of experiment [2] is Guanidinoacetate N-methyltransferase (Homo sapiens) (UniProt Q14353). To be noted: purified enzyme, MTase-Glo SAH luminescence; measured here: GAMT inhibition; at 40 µM; stronger effect = lower value. The essentials: as §1
The target in experiment [3] is Histamine N-methyltransferase (Homo sapiens) (UniProt P50135). The conditions noted are these: purified enzyme, MTase-Glo SAH luminescence; measured here: HNMT inhibition; at 40 µM; stronger effect = lower value. The essentials: as §1
The target of experiment [4] is Nicotinamide N-methyltransferase (Homo sapiens) (UniProt P40261). To be noted: purified enzyme, MTase-Glo SAH luminescence; measured here: NNMT inhibition; at 40 µM; stronger effect = lower value. The method, boiled down: as §1
Experiment [5] has as its target Phenylethanolamine N-methyltransferase (Homo sapiens) (UniProt P11086). To be noted: purified enzyme, MTase-Glo SAH luminescence; measured here: PNMT inhibition; at 40 µM; stronger effect = lower value. The method, boiled down: as §1
% is set by controls: 0 for no effect and ±100 for the full control effect.

Turning to `C=CC1(C)C=C2C(=O)OC(=O)C3=C(CCCC3(C)C)C2(O)CC1` (stereo not given), the activity change, negative = inhibition in experiment [1] is 1.12%; in experiment [2], 5.9%; in experiment [3], 1.99%; in experiment [4], -10.4%; in experiment [5], 3.39%.

In the case of `COc1cccc(-n2nc(C(=O)O)cc2-c2ccc(C3CCCCC3)c(Cl)c2)c1`, the activity change, negative = inhibition in experiment [1] is -36.9%; in experiment [2] it was 7.93%; in experiment [3], -3.53%; in experiment [4] it was -91.2%; in experiment [5] it was -6.72%.

With `O=C(O)C1(c2ccccc2)CCN(S(=O)(=O)c2cccs2)CC1`, the activity change, negative = inhibition in experiment [1] is -0.484%; in experiment [2], -2.19%; in experiment [3], 3.11%; in experiment [4], -0.384%; in experiment [5], -8.89%.

As to `COc1c2c(cc3c1-c1c(cc4c(c1OC)OCO4)CC(C)C(C)C3)OCO2` (stereo not given), the activity change, negative = inhibition was -2.29% in experiment [1]; -12.5% in experiment [2]; 2.91% in experiment [3]; -22.4% in experiment [4]; -7.27% in experiment [5].

Consider `O=C(CC1CCN(C(=O)c2cc(F)ccc2F)C1)NC1CC1` (stereo not given), for which the activity change, negative = inhibition was -0.371% in experiment [1]; 1.18% in experiment [2]; -0.715% in experiment [3]; -2.17% in experiment [4]; -0.328% in experiment [5].

With `CCCn1c(=O)c2ccccc2n2c(=O)n(CC(=O)NCc3ccccc3Cl)nc12`, the activity change, negative = inhibition in experiment [1] was -2.09%; in experiment [2] it was 5.83%; in experiment [3] it was 3.01%; in experiment [4], -9.58%; in experiment [5], -0.001%.

With `O=C(CCc1nnc2n(Cc3ccccc3)c(=O)c3ccccc3n12)NCCc1c[nH]c2ccccc12`, the activity change, negative = inhibition was -2.8% in experiment [1]; 0.124% in experiment [2]; -1.47% in experiment [3]; 10.7% in experiment [4]; 3.13% in experiment [5].

`CCCC1c2ccc(C)n2CCN1C(=O)Nc1cccc(C)c1C` (stereo not given): the activity change, negative = inhibition in experiment [1] was determined as 3.79%; in experiment [2] it was 6.71%; in experiment [3], 2.45%; in experiment [4], 16.8%; in experiment [5] it was 2.16%.

In the case of `Cc1ccc(S(=O)(=O)c2nnn3c2nc(N2CCN(c4ccccn4)CC2)c2ccccc23)cc1`, the activity change, negative = inhibition is -0.062% in experiment [1]; 2.21% in experiment [2]; -5.11% in experiment [3]; -4.07% in experiment [4]; -0.587% in experiment [5].

As for `CC(C)CCNC(=O)c1ccc2c(=O)nc3c(-c4ccccc4F)n[nH]n3c2c1`, the activity change, negative = inhibition is -16.2% in experiment [1]; 0% in experiment [2]; 2% in experiment [3]; -0.802% in experiment [4]; -2.12% in experiment [5].

Turning to `COc1ccc(-n2c(CN)n[nH]c2=O)cc1OC`, the activity change, negative = inhibition in experiment [1] was -4.29%; in experiment [2], -5.73%; in experiment [3], -1.76%; in experiment [4], -8.59%; in experiment [5] it was -4.63%.

As for `O=C1NC2(CCN(Cc3ccccc3)C2)COc2ccccc21` (stereo not given), the activity change, negative = inhibition in experiment [1] was -6.06%; in experiment [2] it was -2.08%; in experiment [3], -4.18%; in experiment [4], -15.6%; in experiment [5], -2.95%.

For `CCc1nc(NC(CCn2cncn2)c2ccccc2)c2cnn(C)c2n1` (stereo not given), the activity change, negative = inhibition in experiment [1] is -2.12%; in experiment [2], -3.5%; in experiment [3], -0.561%; in experiment [4], -4.86%; in experiment [5] it was -1.56%.

As for `CC(C)Cc1cc(C(=O)N2C[C@H](C3CC3)[C@@H](N)C2)n(C)n1`, the activity change, negative = inhibition in experiment [1] is -0.451%; in experiment [2] it was -5.33%; in experiment [3], 1.73%; in experiment [4], -7.91%; in experiment [5], 9.41%.

As to `CCCn1c(C)cnc1CC1CCN(S(=O)(=O)CCC)CC1`, the activity change, negative = inhibition in experiment [1] is -1.84%; in experiment [2] it was -1.44%; in experiment [3], -14.3%; in experiment [4], -14.1%; in experiment [5], -2.18%.

With `COc1ccccc1CN1C(=O)c2cc(C(C)(C)C)nn2CC1(C)C(=O)NCc1ccccc1` (stereo not given), the activity change, negative = inhibition is 3.93% in experiment [1]; 4.38% in experiment [2]; 2.17% in experiment [3]; -16.5% in experiment [4]; -1.87% in experiment [5].

`Cc1nnnn1-c1cccc(C(=O)N2CCCC(O)(CN(C)C)CC2)c1` (stereo not given): the activity change, negative = inhibition was 0.477% in experiment [1]; -2.08% in experiment [2]; -7.73% in experiment [3]; -5.31% in experiment [4]; -3.31% in experiment [5].

On to `C=C1/C(=C/C=C2\CCC[C@]3(C)[C@@H]([C@H](C)CC[C@@H](O)C(C)(C)O)CC[C@@H]23)C[C@@H](O)C[C@@H]1O`, for which the activity change, negative = inhibition was -12.6% in experiment [1]; 5.22% in experiment [2]; -6.22% in experiment [3]; -19.4% in experiment [4]; -16.2% in experiment [5].

On to `O=C(NCc1ccncc1)C1c2ccccc2C(=O)N(C2CCCC2)C12CCCCC2` (stereo not given), for which the activity change, negative = inhibition was -9.66% in experiment [1]; -10% in experiment [2]; -5.64% in experiment [3]; -15% in experiment [4]; -8.66% in experiment [5].

On to `Cn1c(=O)c2ccc(C(=O)NC3CCCC3)cc2n2c(=O)n(CC(=O)Nc3ccc(F)cc3)nc12`, for which the activity change, negative = inhibition in experiment [1] came out at 2.84%; in experiment [2], 0%; in experiment [3], 2.2%; in experiment [4] it was 2.82%; in experiment [5] it was 2.48%.

Take `C=C1C(=O)OC2/C=C(\CO)CC/C=C(\C=O)C(O)C(OC(=O)C(C)CC)C12` (stereo not given): the activity change, negative = inhibition in experiment [1] was 4.31%; in experiment [2], -0.075%; in experiment [3] it was 5.76%; in experiment [4], -5.64%; in experiment [5], 8.57%.

`Cc1ccc(NC(=O)CSc2nnc3n(CC(C)C)c(=O)c4ccc(C(=O)NCC(C)C)cc4n23)cc1`: the activity change, negative = inhibition was 0.796% in experiment [1]; 0% in experiment [2]; -1.2% in experiment [3]; -6.94% in experiment [4]; 2.34% in experiment [5].

Regarding `O=C(Nc1nc2ccc([N+](=O)[O-])cc2s1)C1CCCCC1`, the activity change, negative = inhibition in experiment [1] is -2.28%; in experiment [2], -4.88%; in experiment [3] it was -2.15%; in experiment [4], -14.8%; in experiment [5] it was -12%.

Consider `Cn1c(CNC(=O)C2(C)CCCCC(=O)N2)nc2ccccc21` (stereo not given), for which the activity change, negative = inhibition in experiment [1] was -2.28%; in experiment [2], -1.95%; in experiment [3] it was -1.83%; in experiment [4], -0.191%; in experiment [5] it was -5.19%.

As to `Cn1c(=O)c2ccc(C(=O)NC3CCCC3)cc2n2c(SCC(=O)Nc3ccc(Cl)cc3)nnc12`, the activity change, negative = inhibition is 0.451% in experiment [1]; 0% in experiment [2]; 3.45% in experiment [3]; 2.34% in experiment [4]; 3.47% in experiment [5].

In the case of `COCCn1cnc2ccc(-c3cccc(O)c3)nc2c1=O`, the activity change, negative = inhibition in experiment [1] is -7.73%; in experiment [2], -8.23%; in experiment [3], -15.3%; in experiment [4], -12.4%; in experiment [5], -12.2%.

Take `O=C(NCc1ccccc1C(F)(F)F)c1cccc2c1CCN2C(=O)C1CC1`: the activity change, negative = inhibition in experiment [1] is -3.57%; in experiment [2] it was 0.895%; in experiment [3], 0.923%; in experiment [4], -5.58%; in experiment [5] it was 0.398%.

For the molecule `Cc1cc(CN(C)Cc2ccc(F)cc2)no1`, the activity change, negative = inhibition in experiment [1] was -2.38%; in experiment [2], 1.32%; in experiment [3] it was 2.52%; in experiment [4] it was -4.35%; in experiment [5], 0.253%.

Regarding `Cc1nnc(-c2ccc3occ(-c4ccc(S(C)=O)cc4)c3c2)o1` (stereo not given), the activity change, negative = inhibition in experiment [1] was -12.2%; in experiment [2] it was 3.67%; in experiment [3] it was 6.37%; in experiment [4], -13.9%; in experiment [5] it was 0.55%.

As to `O=C(c1ccc(Cl)c([N+](=O)[O-])c1)N1CCN(c2ccccc2F)CC1`, the activity change, negative = inhibition is -3.36% in experiment [1]; 2.4% in experiment [2]; 8.13% in experiment [3]; -13.8% in experiment [4]; -2.35% in experiment [5].

On to `O=C(Nc1ccc(C(F)(F)F)cc1)N[C@@H]1C[C@H](CO)[C@@H](O)[C@H]1O`, for which the activity change, negative = inhibition in experiment [1] was -3.72%; in experiment [2], -8.13%; in experiment [3], -2.48%; in experiment [4] it was -12%; in experiment [5], 5.82%.

Consider `CCCn1c(=O)c2ccc(C(=O)NC3CCCC3)cc2n2c(SCC(=O)c3ccccc3)nnc12`, for which the activity change, negative = inhibition was 0.924% in experiment [1]; 0% in experiment [2]; 0.906% in experiment [3]; -2.11% in experiment [4]; 2.49% in experiment [5].

As for `COCCN1CCCC2(CCN(C(=O)CCn3cncn3)C2)C1=O` (stereo not given), the activity change, negative = inhibition in experiment [1] was -2.67%; in experiment [2], -2.38%; in experiment [3], -1.62%; in experiment [4] it was -6%; in experiment [5], -1.19%.

As for `CC(C)CNC(=O)c1ccc2c(=O)n(C)c3nn(CC(=O)NCc4ccccc4Cl)c(=O)n3c2c1`, the activity change, negative = inhibition in experiment [1] was 3.52%; in experiment [2], 4.6%; in experiment [3], 9.39%; in experiment [4], -5.89%; in experiment [5] it was -0.518%.

Regarding `Cc1cc(C)cc(NC(=O)Cn2nc3n(C(C)C)c(=O)c4ccc(C(=O)NC5CCCC5)cc4n3c2=O)c1`, the activity change, negative = inhibition in experiment [1] was -3.74%; in experiment [2] it was 0.218%; in experiment [3] it was -3.8%; in experiment [4], 2.23%; in experiment [5], 0.277%.

As to `Cc1ccc(C(C)C)c(O[C@@H]2O[C@H](CO)[C@@H](O)[C@H](O)[C@H]2O)c1`, the activity change, negative = inhibition in experiment [1] was -3.01%; in experiment [2] it was 0.385%; in experiment [3] it was 11.8%; in experiment [4], -12.9%; in experiment [5], -10.4%.

With `Cn1c(=O)n(C)c2cc(S(=O)(=O)Nc3ccc(N4CCN(S(C)(=O)=O)CC4)cc3)ccc21`, the activity change, negative = inhibition in experiment [1] was -6.8%; in experiment [2], 4.45%; in experiment [3], -1.02%; in experiment [4], 1.01%; in experiment [5], -1.63%.

As to `Cc1ccc(-c2ncccc2CNS(=O)(=O)c2ccc(C#N)cc2)cc1`, the activity change, negative = inhibition amounted to 13.6% in experiment [1]; 3.57% in experiment [2]; 10.4% in experiment [3]; 4.83% in experiment [4]; 11% in experiment [5].

Regarding `COc1cccc(CN2C(=O)c3cc4sccc4n3CC2(C)C(=O)NC2CCCCCCC2)c1` (stereo not given), the activity change, negative = inhibition in experiment [1] was -1.88%; in experiment [2], 0%; in experiment [3], 3.92%; in experiment [4], -3.78%; in experiment [5] it was -1.58%.
